In the supplement of paper PMC8728848:
Some of the results follow.

Experiments:
Experiment in all cases: glycan array binding signal (z-score within array); higher = stronger binding
Conditions in all cases: glycan notation: IUPAC condensed, linker removed
[1] = molecular target: Gal(b1-3)GlcNAc(b1-6)GalNAc
Method in brief: (§1)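 Glycan array data were curated from 3228 arrays in the Consortium for Functional Glycomics database and kept only where the protein sequence was available. Glycan names were converted to IUPAC-condensed notation, and columns mapping to the same glycan were averaged. The binding signal is a within-array Z-score, averaged across arrays of the same protein sequence at different concentrations or buffers and across linkers. Negative Z-scores can be read as non-binding.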

[2] = molecular target: Gal(b1-3)GlcNAc(b1-6)[Gal(b1-3)]GalNAc
Method in brief: as §1

[3] = molecular target: Gal(b1-3)GlcNAc6S
Method in brief: as §1

[4] = molecular target: Gal(b1-3)[Fuc(a1-4)]GlcNAc
Method in brief: as §1

[5] = molecular target: Gal(b1-3)[Fuc(a1-4)]GlcNAc(b1-2)Man
Method in brief: as §1

[6] = molecular target: Gal(b1-3)[Fuc(a1-4)]GlcNAc(b1-2)Man(a1-3)[Gal(b1-3)[Fuc(a1-4)]GlcNAc(b1-2)Man(a1-6)]Man(b1-4)GlcNAc(b1-4)[Fuc(a1-6)]GlcNAc
Method in brief: as §1

[7] = molecular target: Gal(b1-3)[Fuc(a1-4)]GlcNAc(b1-3)Gal(b1-3)[Fuc(a1-4)]GlcNAc
Method in brief: as §1

[8] = molecular target: Gal(b1-3)[Fuc(a1-4)]GlcNAc(b1-3)Gal(b1-4)[Fuc(a1-3)]GlcNAc
Method in brief: as §1

[9] = molecular target: Gal(b1-3)[Fuc(a1-4)]GlcNAc(b1-6)GalNAc
Method in brief: as §1

[10] = molecular target: Gal(b1-3)[GlcNAc(b1-6)]GalNAc
Method in brief: as §1

[11] = molecular target: Gal(b1-3)[Neu5Ac(a2-6)]GalNAc
Method in brief: as §1

[12] = molecular target: Gal(b1-3)[Neu5Ac(a2-6)]GlcNAc(b1-4)Gal(b1-4)Glc
Method in brief: as §1

[13] = molecular target: Gal(b1-3)[Neu5Ac(b2-6)]GalNAc
Method in brief: as §1

[14] = molecular target: Gal(b1-4)Gal
Method in brief: as §1

[15] = molecular target: Gal(b1-4)GalNAc(a1-3)[Fuc(a1-2)]Gal(b1-4)GlcNAc
Method in brief: as §1

[16] = molecular target: Gal(b1-4)GalNAc(b1-3)[Fuc(a1-2)]Gal(b1-4)GlcNAc
Method in brief: as §1

[17] = molecular target: Gal(b1-4)Glc
Method in brief: as §1

[18] = molecular target: Gal(b1-4)Glc6S
Method in brief: as §1

[19] = molecular target: Gal(b1-4)GlcNAc
Method in brief: as §1

[20] = molecular target: Gal(b1-4)GlcNAc(a1-6)Gal(b1-4)GlcNAc
Method in brief: as §1

[21] = molecular target: Gal(b1-4)GlcNAc(b1-2)Man
Method in brief: as §1

[22] = molecular target: Gal(b1-4)GlcNAc(b1-2)Man(a1-3)Man(b1-4)GlcNAc(b1-4)GlcNAc
Method in brief: as §1

[23] = molecular target: Gal(b1-4)GlcNAc(b1-2)Man(a1-3)[Gal(b1-4)GlcNAc(b1-2)Man(a1-6)]Man(b1-4)GlcNAc(b1-4)GlcNAc
Method in brief: as §1

[24] = molecular target: Gal(b1-4)GlcNAc(b1-2)Man(a1-3)[Gal(b1-4)GlcNAc(b1-2)Man(a1-6)]Man(b1-4)GlcNAc(b1-4)[Fuc(a1-6)]GlcNAc
Method in brief: as §1

[25] = molecular target: Gal(b1-4)GlcNAc(b1-2)Man(a1-3)[Gal(b1-4)GlcNAc(b1-2)Man(a1-6)][Gal(b1-4)GlcNAc(b1-4)]Man(b1-4)GlcNAc(b1-4)[Fuc(a1-6)]GlcNAc
Method in brief: as §1

[26] = molecular target: Gal(b1-4)GlcNAc(b1-2)Man(a1-3)[Gal(b1-4)GlcNAc(b1-2)Man(a1-6)][GlcNAc(b1-4)]Man(b1-4)GlcNAc(b1-4)[Fuc(a1-6)]GlcNAc
Method in brief: as §1

[27] = molecular target: Gal(b1-4)GlcNAc(b1-2)Man(a1-3)[GlcNAc(b1-2)Man(a1-6)]Man(b1-4)GlcNAc(b1-4)GlcNAc
Method in brief: as §1

[28] = molecular target: Gal(b1-4)GlcNAc(b1-2)Man(a1-3)[GlcNAc(b1-4)][Gal(b1-4)GlcNAc(b1-2)Man(a1-6)]Man(b1-4)GlcNAc(b1-4)GlcNAc
Method in brief: as §1

[29] = molecular target: Gal(b1-4)GlcNAc(b1-2)Man(a1-3)[Man(a1-6)]Man(b1-4)GlcNAc(b1-4)GlcNAc
Method in brief: as §1

[30] = molecular target: Gal(b1-4)GlcNAc(b1-2)Man(a1-6)Man(b1-4)GlcNAc(b1-4)GlcNAc
Method in brief: as §1

[31] = molecular target: Gal(b1-4)GlcNAc(b1-2)Man(a1-6)[GlcNAc(b1-2)Man(a1-3)]Man(b1-4)GlcNAc(b1-4)GlcNAc
Method in brief: as §1

[32] = molecular target: Gal(b1-4)GlcNAc(b1-2)Man(a1-6)[Man(a1-3)]Man(b1-4)GlcNAc(b1-4)GlcNAc
Method in brief: as §1

[33] = molecular target: Gal(b1-4)GlcNAc(b1-2)[Gal(b1-4)GlcNAc(b1-4)]Man(a1-3)[Gal(b1-4)GlcNAc(b1-2)Man(a1-6)]Man(b1-4)GlcNAc(b1-4)GlcNAc
Method in brief: as §1

[34] = molecular target: Gal(b1-4)GlcNAc(b1-2)[Gal(b1-4)GlcNAc(b1-4)]Man(a1-3)[Gal(b1-4)GlcNAc(b1-2)[Gal(b1-4)GlcNAc(b1-6)]Man(a1-6)]Man(b1-4)GlcNAc(b1-4)GlcNAc
Method in brief: as §1

[35] = molecular target: Gal(b1-4)GlcNAc(b1-2)[Gal(b1-4)GlcNAc(b1-4)]Man(a1-3)[GlcNAc(b1-4)][Gal(b1-4)GlcNAc(b1-2)Man(a1-6)]Man(b1-4)GlcNAc(b1-4)GlcNAc
Method in brief: as §1

[36] = molecular target: Gal(b1-4)GlcNAc(b1-2)[Gal(b1-4)GlcNAc(b1-4)]Man(a1-3)[GlcNAc(b1-4)][Gal(b1-4)GlcNAc(b1-2)[Gal(b1-4)GlcNAc(b1-6)]Man(a1-6)]Man(b1-4)GlcNAc(b1-4)GlcNAc
Method in brief: as §1

[37] = molecular target: Gal(b1-4)GlcNAc(b1-2)[Gal(b1-4)GlcNAc(b1-6)]Man(a1-6)[Gal(b1-4)GlcNAc(b1-2)Man(a1-3)]Man(b1-4)GlcNAc(b1-4)GlcNAc
Method in brief: as §1

B1: PVL (Psathyrella velutina), Q309D1_9AGAR (protein)
chain: MSVVVISQALPVPTRIPGVADLVGFGNGGVYIIRNSLLIQVVKVINNFGYDAGGWRVEKHVRLLADTTGDNQPDVVGFGENGVWISTNNGNNTFVDPPKMVLANFAYAAGGWRVEKHIRFMADLRKTGRADIVGFGDGGIYISRNNGGGQFAPAQLALNNFGYAQGWRLDRHLRFLADVTGDGLLDVVGFGENQVYIARNSGNGTFQPAQAVVNNFCIGAGGWTISAHPRVVADLTGDRKADILGFGVAGVYTSLNNGNGTFGAVNLVLKDFGVNSGWRVEKHVRCVSSLTNKKVGDIIGFGDAGVYVALNNGNGTFGPVKRVIDNFGYNQGWRVDKHPRFVVDLTGDGCADIVGFGENSVWACMNKGDGTFGPIMKLIDDMTVSKGWTLQKTVRYAANLYL
[1]
  glycan array binding signal (z-score): -0.364
[2]
  glycan array binding signal (z-score): -0.356
[3]
  glycan array binding signal (z-score): -0.361
[4]
  glycan array binding signal (z-score): -0.367
[5]
  glycan array binding signal (z-score): -0.306
[6]
  glycan array binding signal (z-score): -0.343
[7]
  glycan array binding signal (z-score): -0.367
[8]
  glycan array binding signal (z-score): -0.373
[9]
  glycan array binding signal (z-score): -0.361
[10]
  glycan array binding signal (z-score): -0.152
[11]
  glycan array binding signal (z-score): -0.361
[12]
  glycan array binding signal (z-score): -0.26
[13]
  glycan array binding signal (z-score): -0.366
[14]
  glycan array binding signal (z-score): -0.367
[15]
  glycan array binding signal (z-score): -0.373
[16]
  glycan array binding signal (z-score): -0.37
[17]
  glycan array binding signal (z-score): -0.299
[18]
  glycan array binding signal (z-score): -0.335
[19]
  glycan array binding signal (z-score): -0.292
[20]
  glycan array binding signal (z-score): -0.352
[21]
  glycan array binding signal (z-score): -0.344
[22]
  glycan array binding signal (z-score): -0.367
[23]
  glycan array binding signal (z-score): -0.369
[24]
  glycan array binding signal (z-score): -0.555
[25]
  glycan array binding signal (z-score): -0.373
[26]
  glycan array binding signal (z-score): -0.368
[27]
  glycan array binding signal (z-score): 0.543
[28]
  glycan array binding signal (z-score): -0.369
[29]
  glycan array binding signal (z-score): -0.345
[30]
  glycan array binding signal (z-score): -0.366
[31]
  glycan array binding signal (z-score): 0.45
[32]
  glycan array binding signal (z-score): -0.359
[33]
  glycan array binding signal (z-score): -0.356
[34]
  glycan array binding signal (z-score): -0.366
[35]
  glycan array binding signal (z-score): -0.36
[36]
  glycan array binding signal (z-score): -0.365
[37]
  glycan array binding signal (z-score): -0.369
